# Experimental data as given in PMC4336329 (PLoS ONE, 2015).
# Among all 310,000 compounds or so, about 2,200 (0.71%) showed an effect of 50% or more. Effects have a minus sign here. This is one part of the list.
# Target: human ether-à-go-go-related gene (hERG) potassium channel (human, UniProt Q12809)
# Assay: primary screen, population patch clamp on CHO cells stably expressing hERG
# Chain of human ether-à-go-go-related gene (hERG) potassium channel (Q12809 whole entry, looked up): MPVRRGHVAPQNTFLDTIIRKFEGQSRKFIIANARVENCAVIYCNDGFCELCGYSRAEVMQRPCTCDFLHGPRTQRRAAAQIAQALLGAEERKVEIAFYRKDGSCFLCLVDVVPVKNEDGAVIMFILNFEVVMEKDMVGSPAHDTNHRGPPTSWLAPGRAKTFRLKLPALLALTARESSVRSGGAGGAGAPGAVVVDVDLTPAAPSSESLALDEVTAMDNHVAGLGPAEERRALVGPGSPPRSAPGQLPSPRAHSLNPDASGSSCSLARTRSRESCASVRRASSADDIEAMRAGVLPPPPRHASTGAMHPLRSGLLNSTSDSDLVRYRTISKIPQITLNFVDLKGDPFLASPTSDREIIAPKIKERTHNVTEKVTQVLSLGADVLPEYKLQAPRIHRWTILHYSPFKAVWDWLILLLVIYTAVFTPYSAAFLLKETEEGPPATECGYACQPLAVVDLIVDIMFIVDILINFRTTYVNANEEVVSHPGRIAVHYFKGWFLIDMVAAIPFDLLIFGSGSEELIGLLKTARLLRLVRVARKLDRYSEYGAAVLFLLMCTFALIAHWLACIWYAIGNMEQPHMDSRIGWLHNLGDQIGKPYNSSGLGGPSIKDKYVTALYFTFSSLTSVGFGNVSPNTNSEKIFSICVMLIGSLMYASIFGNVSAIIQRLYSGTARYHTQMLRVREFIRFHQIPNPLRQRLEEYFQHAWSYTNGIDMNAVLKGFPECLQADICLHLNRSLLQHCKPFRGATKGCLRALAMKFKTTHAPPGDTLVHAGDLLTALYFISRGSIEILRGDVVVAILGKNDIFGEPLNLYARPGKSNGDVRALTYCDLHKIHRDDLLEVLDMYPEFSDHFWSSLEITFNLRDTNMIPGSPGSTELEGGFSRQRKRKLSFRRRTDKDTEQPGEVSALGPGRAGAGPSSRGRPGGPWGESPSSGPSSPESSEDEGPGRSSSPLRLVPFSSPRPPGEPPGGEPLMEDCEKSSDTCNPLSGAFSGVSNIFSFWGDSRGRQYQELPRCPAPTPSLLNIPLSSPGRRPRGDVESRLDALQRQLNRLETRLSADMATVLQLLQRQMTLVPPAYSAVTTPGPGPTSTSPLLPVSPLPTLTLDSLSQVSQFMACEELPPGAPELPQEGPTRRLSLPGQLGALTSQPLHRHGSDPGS
row,Structure (SMILES),"hERG current change (%, negative = inhibition) at 1uM"
1,NC1=NS(=O)(=O)NC1c1cccc(Cl)c1 (stereo not drawn),8.78%
2,CCCCNC(=O)O[C@H]1C[C@@H]2CCN3C(=O)CCC[C@H]([C@H]1Cc1ccccc1)[C@H]23,12.6%
3,CC1CCCC(NC(=O)CN2CCN(S(=O)(=O)c3cccs3)CC2)C1C (stereo not drawn),3.86%
4,Cc1sc(NC(=O)Cn2cnnn2)nc1-c1ccc(Cl)cc1,2.58%
5,Cc1ccc(NC(=O)C2C3CCC(O3)C2C(=O)O)c(Br)c1 (stereo not drawn),21%
6,CCCOC(=O)c1ccc(OC(=O)c2ccco2)cc1,10.7%
7,COc1ccc(NC(=S)N/N=C2\CC(C)(C)Oc3ccc(OC)cc32)cc1,9.81%
8,FC(F)(F)c1cnc(COc2ccc(Cl)cc2Cl)c(Cl)c1,10.3%
9,O=C(COc1ccc2ccccc2c1)Nc1cccnc1Cl,-3.52%
10,Cc1ccc(N(C(=O)c2ccco2)C(C(=O)NC2CCCC2)c2ccco2)c(C)c1 (stereo not drawn),11.2%
11,CCOC(=O)c1c(-c2ccc(C)o2)csc1NC(=O)CN(C)CC(=O)Nc1ccc(C)cc1,11.4%
12,COC(=O)CCC(=O)NNC(=O)CCC(=O)Nc1cccc(Cl)c1C,-7.98%
13,Cc1c(S(=O)(=O)N2CCN(C(=O)c3ccco3)CC2)c(=O)n(C)c(=O)n1C,3.03%
14,COc1nc(Nc2ccc3c(c2)OCO3)nc(OC)n1,9.52%
15,Cc1cc(C)c(NC(=O)c2ccc[n+](Cc3ccc([N+](=O)[O-])cc3)c2)c(C)c1.[Br-],3.82%
16,CCOC(=O)N1CCN(C(=O)CSc2nnc(CNC(=O)c3ccccc3F)o2)CC1,11.8%
17,Cn1c(NC(=O)c2ccco2)c(-c2ccccc2)c(=O)c2ccccc21,7.77%
18,Cc1cccc(C(=O)NCCNC(=O)c2cccnc2)c1,15.6%
19,Cc1ccc(F)c(NC(=S)Nc2cccc3ccccc23)c1,14%

row,Structure (SMILES),"hERG current change (%, negative = inhibition) at 1uM"
1,COC(=O)CCC(=O)OC1(C)C(=O)C=C2C=C3CCCN3C=C2C1=O (stereo not drawn),-2.38%
2,COc1ccccc1N1CCN(C2CCCN(C(=O)c3ccccn3)C2)CC1 (stereo not drawn),10.2%
3,C/C(=N/NC(=O)CNc1ccc(C)cc1)c1ccc(Br)s1,2.65%
4,N/C(=N\OC(=O)c1ccccc1[N+](=O)[O-])c1cccnc1,2.7%
5,C/C(=N\NC(=O)Cn1c(-c2ccccn2)nc2ccccc21)c1ccccc1,5.08%
6,COc1ccc(NC(=O)C(CC(=O)O)C(C)c2ccccc2)cc1 (stereo not drawn),8.34%
7,Cc1cccc(N(C)c2ccc3cc(S(=O)(=O)N4CCCC4)ccc3n2)c1,13%
8,O=C(O)CNS(=O)(=O)c1ccc2c3c(cccc13)C(=O)N2,15.6%
9,CCOC(=O)C1(Cc2ccccc2)CCCN(C2CCN(C(C)=O)CC2)C1 (stereo not drawn),14.2%
10,C=C(C)COc1ccc(-c2ncncc2Oc2ccc(OC)cc2)c(O)c1,-8.11%
11,O=C(Nc1ccc(F)c(Cl)c1)c1nsc(Cl)c1Cl,12.8%
12,Cc1ccccc1CN1C[C@@H]2C[C@@H](c3ccc4nsnc4c3)N3CCC[C@@]23C1=O,-0.62%
13,CN(C)Cc1nnnn1-c1cccc(-n2nnnc2CN(C)C)c1,13.7%
14,COc1ccc(S(=O)(=O)N2CCN(CC(=O)NC3CCCC3)CC2)cc1,13.2%
15,CCCCOc1ccc(C(=O)Nc2ccc3c(c2)OCO3)cc1,10.1%
16,CC(=O)N1C(C)c2ccccc2C(C)(C)CC12CCCCC2 (stereo not drawn),9.69%
17,COc1ccc(CNS(=O)(=O)c2ccc(F)c(C(=O)Nc3ccccc3OC)c2)cc1,11.9%
18,CNc1c([N+](=O)[O-])ncn1C,8.02%
19,COc1ccccc1OC(=O)C1CC(=O)N(c2ccc(Cl)cc2)C1 (stereo not drawn),-9.23%

row,Structure (SMILES),"hERG current change (%, negative = inhibition) at 1uM"
1,CCN(C(=S)NCc1ccccc1)c1ccccc1,-14.2%
2,CC(NS(C)(=O)=O)c1nnc2n1-c1ccc(Br)cc1C(c1ccccc1Cl)=NC2 (stereo not drawn),5.73%
3,O=C(CN1CCCc2ccccc21)N1CCc2ccccc21,13.6%
4,N#Cc1cccc(NC(=O)NCCc2c[nH]c3ccccc23)c1,3.75%
5,Cc1cc(C)c(C(=O)NC2CC(C)(C)Cc3c2cnn3-c2ccccc2)o1 (stereo not drawn),7.82%
6,CCOc1ccccc1NC(=O)c1cccnc1,10.2%
7,COc1ccc(CSc2nc(O)cc(=O)n2CC(C)C)cc1F,9.68%
8,O=C(O)c1ccc(NC(=O)N2C[C@H]3C[C@@H](C2)c2cccc(=O)n2C3)cc1,-13.6%
9,CCOC(=O)c1ccc(NC(=O)COc2ccccc2OC)cc1,11.3%
10,O=C(NC1CCCc2c1cnn2-c1ccc(F)cc1F)c1ccccc1N1CCOCC1 (stereo not drawn),5.82%
11,COc1ccc(CNc2nc(-c3cccnc3)nn2C(=O)c2ccco2)cc1,10.3%
12,Cc1ccc(NC(=O)c2cc(N3C(=O)CCC3=O)ccc2N2CCOCC2)cc1,5.52%
13,COc1cc(C2C(C#N)=C(C)NC3=C2C(=O)CC(C)(C)C3)cc(OC)c1O (stereo not drawn),10.8%
14,CC(=O)Nc1cccc(NC(=O)CCNC(=O)c2ccccc2)c1,8.11%
15,CCCCc1nc(SCCN2CCOCC2)c2c(=O)n(C)c(=O)n(C)c2n1,0.56%
16,COc1cccc(/C=C2\SC(=O)N(CC(=O)NC3CCS(=O)(=O)C3)C2=O)c1 (stereo not drawn),11.1%
17,COc1ccc2c(c1)[nH]c1c(Cl)ncnc12,5.65%
18,CCOc1ccc(CC2C(=O)NC(=O)N(c3ccc(CC)cc3)C2=O)cc1 (stereo not drawn),1.99%
19,COc1cccc(NC(=O)NC2(C(F)(F)F)Oc3ccccc3O2)c1,8.19%
